Values quoted from earlier work as cited in patent US10072252B2 (priority 2013, dated 2018).

Target: Sulfolobus solfataricus SsoPox, wild type (wt), SEQ ID NO: 3 (Saccharolobus solfataricus, UniProt Q97VT7)
Design: made in house; host or cells: E. coli BL21(DE3)-pGro7/GroEL
Settings: Table 4; cited from earlier work

Chain of Sulfolobus solfataricus SsoPox, wild type (wt), SEQ ID NO: 3 (Q97VT7 whole entry): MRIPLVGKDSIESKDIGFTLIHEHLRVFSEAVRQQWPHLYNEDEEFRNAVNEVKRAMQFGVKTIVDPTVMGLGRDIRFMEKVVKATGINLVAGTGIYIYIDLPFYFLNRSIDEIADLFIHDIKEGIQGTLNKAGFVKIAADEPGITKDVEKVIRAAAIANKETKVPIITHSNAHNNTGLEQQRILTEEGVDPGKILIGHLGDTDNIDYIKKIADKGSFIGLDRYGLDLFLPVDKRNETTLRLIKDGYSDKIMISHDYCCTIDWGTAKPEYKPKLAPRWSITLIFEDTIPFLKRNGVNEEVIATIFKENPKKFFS

In the case of `CCOP(=S)(OCC)Oc1ccc([N+](=O)[O-])cc1` [Ethyl-Parathion, ethyl-parathion], the “Catalytic activity (not detected)” value is listed as “ND (not detected)”.
